Measured values taken from ChEMBL document CHEMBL4888484, “Replenishing the malaria drug discovery pipeline: Screening and hit evaluation of the MMV Hit Generation Library 1 (HGL1) against asexual blood stage Plasmodium falciparum ,using a nano luciferase reporter read-out” (2022).
The whole screen tested about 150,000 compounds, of which about 540 (0.36%) showed an effect of 50% or more. The list shows a part of the results.

Tested on: Plasmodium falciparum
Assay: Primary screen in NF54 nanoGlo assay, in single point, at 2uM, 72h; a lower Z score goes with more inhibition
Type: functional, Erythrocyte
Conditions: timepoint 72 hour

SMILES	% Inhibition [%]	Z score
Cc1cccc(C(=O)Nc2cc(C(=O)O)ccc2N2CCC(N3CCCCC3)CC2)c1	-11	1.67
COc1ccc(CCC(=O)O[C@@H](Cn2cncn2)c2ccc(Cl)cc2)cc1	-6	0.76
CCN(CC(C)(C)O)S(=O)(=O)N1CC(C)CC(C)C1 (configuration not stated)	-5	0.79
CCOc1cc(N2CCOCC2)c(OCC)cc1NC(=O)c1csc2c1CCCC2	-1	0.19
Cc1ccc(-c2nc(Cn3nc(C)c(C)c(C#N)c3=O)co2)c(C)c1	-2	0.23
O=C(N[C@H]1CCCCNC1=O)c1n[nH]c2c1CCCC2	-9	1.5
CCN1C(=O)C(c2ccc(O)c(C)c2)(c2ccc(O)c(C)c2)c2cc(Br)ccc21	25	-3.47
NC(=O)c1ccc(-c2nc3c([nH]2)CCN(C(=O)CN2CCOC2=O)C3)cc1	3	-0.51
O=C(c1cc(-n2ccnc2)ccn1)N1CC(S(=O)(=O)Nc2ccccc2)C1	-10	1.29
O=C(NCC1CCCCC1)c1ccco1	4	-0.57
Cc1cc(C)c(NC(=O)c2cnc(-c3ccccc3)nc2C)c(C)c1	-12	1.25
CN(C(=O)Cn1cc(C(=O)O)cn1)C1CCCCC1c1ccccc1 (configuration not stated)	1	-0.14
COc1c(C)cc(C)cc1CN1CC[C@H]1C(=O)O	-24	2.29
CN1C[C@@H]2CC[C@H]1CN(C(=O)Nc1ccc(F)c(Cl)c1)C2	3	-0.41
Cc1nc(C)n(CC2CN(C(=O)C3CCCN(C(=O)C(C)C)C3)CCO2)n1 (configuration not stated)	-6	0.68
Cc1nc(C(C)C)ccc1C(=O)N(C)CC1(CO)CC1	-14	1.83
Cc1cc(-c2nc([C@@H]3CCCc4ccccc43)no2)n[nH]1	-3	0.41
CC(NC(=O)C(C)N1CCC(OCCN2CCOCC2)CC1)c1ccc(F)cc1 (configuration not stated)	-9	1.1
Cc1ccccc1-c1noc2ncnc(NCc3ccc4c(c3)OCO4)c12	1	-0.13
Cc1nc2cnccn2c1NCCC(=O)N1CCCCCC1	-17	2.41
CCO[C@H](C(=O)Nc1nccnc1C1CC1)C1CCCC1	-1	0.08
O=C(Nc1ccc(Cl)cc1)c1cc(CN2CCCC2)on1	-10	1.05

SMILES	% Inhibition [%]	Z score
O=C(NCc1ccccn1)[C@@H]1CCCO1	-5	0.79
Cc1nc(N(C)CC2(CO)CCOCC2)cc([C@H]2C[C@@H](O)C2)n1	-6	1.02
C[C@](O)(CNS(=O)(=O)CCC(F)(F)F)c1cc2ccccc2o1	-7	0.87
Cn1nccc1-c1ccnc2nc(C3CCC3)nn12	-3	0.41
COCC[C@@H](CN(C)C1CCC1)NC(=O)OC(C)(C)C	-3	0.45
CN(Cc1csc(CNC(=O)c2ccccc2)n1)C1(CO)CCOCC1	-13	1.99
Cc1ncc(C)c(N2CCCC3(CCOCC3)C2)n1	-4	0.61
C=CCn1cc([C@@H]2C[C@H](NC(=O)c3ccccc3)C[C@H](CC)O2)c(C)n1	-11	1.29
Cc1sc(-c2ccccc2Cl)nc1C(=O)NCCc1cnc[nH]1	-6	0.93
CC1CN(C(=O)C#Cc2ccccc2)CC2(CCOC2C)O1 (configuration not stated)	2	-0.24
CCOc1ccc(Cc2nn(C(C)=O)c3c2C(=O)CC(C)(C)C3)cc1OCC	35	-3.99
CC1CCN(S(=O)(=O)c2ccc(CC(=O)N3CCOCC3)s2)CC1	3	-0.54
C#Cc1cc(C(F)(F)F)cc(C#N)c1N	31	-0.81
COC(=O)CN(Cc1cccnc1)CC(C)C	-1	0.1
C[C@@H](c1ccncn1)N(C)CC(=O)N1CCOCC1	-8	1.04
Cc1ccc2c(c1)NC(=O)c1cc(NS(=O)(=O)CCN3C(=O)CCCC3=O)ccc1O2	-4	0.58
CC(C)[C@H](CC(=O)O)NCc1ccccc1Cl	-5	0.85
Fc1ccccc1N1CCC2(CC1)NCCc1[nH]cnc12	-5	0.74
O=C(NCC1CCOCC1)c1ccc(-c2ccc(Cl)cn2)cc1	7	-1.01
OCC1(CN[C@@H]2C=CC3(CCCCC3)CC2)CCOCC1	-8	1.25
Cc1ccc(S(=O)(=O)N[C@@H]2COc3ccc(Br)cc3C2)c(C)c1	0	0
N#Cc1cc(N2CC[C@]3(CCOC3)C2)nc2ccccc12	-13	1.59

SMILES	% Inhibition [%]	Z score
CC(C)(C(=O)NCCc1cn[nH]c1)N1CCCC1	-13	1.13
CO[C@H]1[C@@H]2CC[C@H]1CN(C(=O)CCc1nc3ccccc3[nH]1)C2	-1	0.09
Cn1nc(-c2nc(-c3cccc(F)c3)no2)c2c1CCN(C(=O)c1ccccn1)C2	12	-1.38
CCCCc1nc(CN2C[C@@H]3CC[C@H]2CN(C(=O)c2ccccc2)C3)c[nH]1	2	-0.45
CC(C)N(C(=O)[C@H](C)S(C)(=O)=O)c1cccc(C(F)(F)F)c1	7	-1.02
NC(=NS(=O)(=O)c1ccc(Cl)cc1)C(Cl)(Cl)Cl	-23	4.26
CCc1cc(C(=O)NCCc2cccs2)nc2cc(-c3ccccn3)nn12	-15	2.03
O=C(Cn1c(=O)n(CCc2cccs2)c(=O)c2sccc21)Nc1ccc2c(c1)OCCO2	-1	0.18
Cc1ccc2nc(-c3ccc(NC(=O)c4ccc5ccccc5c4)cc3)oc2c1	-18	3.33
COC(CS(=O)(=O)NC1CCCS(=O)(=O)C1)c1ccccc1 (configuration not stated)	3	-0.44
O=C1CC[C@H](C(=O)N2CCCCO2)CN1CCN1CCOCC1	-15	1.87
O=C(c1cc2ncccc2o1)N1CCO[C@H]2COCC[C@H]21	-11	1.21
CCC[C@H]1CN(C(=O)c2cn[nH]c2)CCN1C(=O)c1cn[nH]c1	-6	0.59
CC(=O)NC[C@H]1CCC2(CCN(c3nc4c(s3)c(C)nn4C)CC2)O1	1	-0.25
O=C1CCCN1CC1CCN(C(=O)c2ccc(-c3cn[nH]c3)nc2)CC1	-12	1.73
Cc1cc(C(=O)Cn2cnc(C#N)c2C#N)ccc1F	26	-2.94
Cc1nc(CN(C)Cc2cccnc2N)cs1	-16	1.46
Cc1ccc(-n2c(=O)[nH]c3nc(-n4ccnc4)ncc3c2=O)cc1F	-4	0.55
Cc1cc(C)cc(NC(=O)C2=NCCN2)c1	-22	2.62
COc1cccc(NC(=O)Nc2ccc3c(c2)CN(Cc2ccc(Cl)cc2)C(=O)[C@H](C)O3)c1	-6	0.65
O=C(NCCCc1cnc2ncnn2c1)c1cc(-c2ccc(F)cc2)c[nH]1	9	-1.64
O=C(c1ccc(OC2CCC2)cc1)N1CCCCC1	-21	2.11

SMILES	% Inhibition [%]	Z score
O=C1CN(c2nc(C(F)(F)F)nc3ccsc23)CCN1	-5	0.68
CN(c1nc2cccc(F)c2s1)C1CCN(c2cnccn2)CC1	-13	1.37
Cn1cncc1-c1ccc(C(=O)NC[C@H]2CCCO2)cc1	-14	2.55
COc1cc(C(F)(F)F)ncc1NC(=O)CC[C@H]1CCCOC1	-7	1.17
C[C@H](NC(=O)N(C)C1CC1)c1noc(Cc2ccccc2)n1	-7	0.93
Cc1ccc(S(=O)(=O)c2cn(CC(=O)Nc3ccc(C)c(C)c3)c3nc(C)ccc3c2=O)cc1	-12	1.24
CC1OCCCC1C(=O)N1CCNC(=O)C1C (configuration not stated)	-6	0.93
O=C(Nc1ncc(Br)cn1)OCC(F)(F)F	6	-0.66
Cc1nnccc1C(=O)N1C[C@@H](CO)Cc2cccc(F)c21	-7	0.85
c1ccc(-c2cn3c4ccccc4nc3n2CCN2CCCCC2)cc1	-3	0.38
CN(Cc1cnn(C)c1)C(=O)c1ccc2c(c1)CCC2	-11	1.45
COc1cc2ccccc2cc1C(=O)Nc1ccc(-c2nc3cc(Cl)ccc3o2)cc1	-9	1.52
COc1ccccc1NC(=O)c1cnn2c1NC(C(=O)O)=C[C@H]2c1ccccc1Cl	10	-1.85
Cc1noc(C)c1C(=O)NC[C@H]1Cc2ccccc21	-5	0.45
CC(C)(C)C(=O)Nc1cnccc1[C@@H](NCCCO)C(F)(F)F	-6	0.8
CCn1nnnc1NC(=O)N[C@H]1CCCc2ccccc2C1	-2	0.37
Cc1nc(C(=O)OCc2ccc(OC(F)F)cc2)c2n1CCCC2	-10	0.96
O=C(CCc1ccccc1)N1CC(Oc2cccnc2)C1	-10	1.83
CN(Cc1noc2c1CC(C)(C)CC2)c1cccc(CC(=O)O)c1	-12	2.11
CCCS(=O)(=O)N(C)CC(=O)NCc1sccc1C	-5	0.55
